T1: human LAG-3 expressed on 293T-lacZ cells (Homo sapiens, UniProt P18627)
T1 construct: An expression plasmid of the full-length human LAG-3 was introduced into the 293T cells stably expressing β-galactosidase; expressed in transfected cells; host or cells: 293T-lacZ cells (293T stably expressing β-galactosidase), transient transfection
T1 sequence (P18627 23-525): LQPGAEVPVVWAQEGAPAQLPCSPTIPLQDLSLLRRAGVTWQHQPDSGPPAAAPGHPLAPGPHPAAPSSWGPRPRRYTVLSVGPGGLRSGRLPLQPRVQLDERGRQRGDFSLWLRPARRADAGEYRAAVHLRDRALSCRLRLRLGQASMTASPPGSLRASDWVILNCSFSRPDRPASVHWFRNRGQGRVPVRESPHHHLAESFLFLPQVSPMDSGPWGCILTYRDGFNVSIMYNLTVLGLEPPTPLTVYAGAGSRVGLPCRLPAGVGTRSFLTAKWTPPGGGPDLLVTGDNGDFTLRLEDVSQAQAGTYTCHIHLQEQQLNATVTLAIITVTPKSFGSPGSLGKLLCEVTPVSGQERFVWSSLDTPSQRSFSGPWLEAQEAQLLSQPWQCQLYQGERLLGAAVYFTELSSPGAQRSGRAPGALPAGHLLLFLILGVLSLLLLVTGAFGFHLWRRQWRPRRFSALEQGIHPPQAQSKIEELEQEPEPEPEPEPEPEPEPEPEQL


Assays:
[1] = test system: 293T-lacZ cells expressing human LAG-3; test: In vitro ADCC assay, human PBMC effector cells, β-galactosidase release; type: cell-based; settings: target 293T-lacZ/hLAG-3 cells, effector human PBMCs, percentage of cells lysed
Protocol: 293FT cells (Invitrogen Corp.) were transfected with pLenti6/V5-GW/lacZ, and ViraPower™ Packaging Mix (Invitrogen Corp.) according to the accompanying protocols to prepare a recombinant lentivirus to express the β-galactosidase gene. 293T cells were infected by the obtained recombinant lentivirus according to the protocol of ViraPower Lentiviral Expression Systems (Invitrogen Corp). Virus-infected cells were selected using 10 μg/mL blasticidin (Invitrogen Corp.) to obtain a line stably expressing β-galactosidase. An expression plasmid of the full-length human LAG-3 was introduced into the 293T cells stably expressing β-galactosidase (hereinafter, referred to as 293T-lacZ) using Lipofectamine 2000 (manufactured by Invitrogen Corp.), and the cells were cultured for 1 day and then dissociated and recovered using TrypLExpress (manufactured by Invitrogen Corp). The cells were washed twice with phenol red-free RPMI1640 containing 5% FBS (hereinafter, referred to as a “medium for ADCC”). The number of live cells was counted by the trypan blue dye exclusion test. The cells were resuspended to 1×10^5 cells/ml in a medium for ADCC and used as target cells.
PBMCs were separated from human peripheral blood by Ficoll centrifugation, and a suspension adjusted to a live cell density of 1.2×10^6 cells/mL in a medium for ADCC was used as effector cells.
The ADCC activity of the purified rat anti-human LAG-3 antibodies rLA204, rLA212, rLA225, rLA869, and rLA1264 was investigated by the following method. To a 96-well U-bottom microplate containing 50 μL/well of the antibody solution, was added 50 μL/well of the target cells (which will be hereinafter referred to as 293T-lacZ/hLAG-3 cells) of Example 1)-5-1, followed by standing at 4° C. for 30 minutes. Then, 75 μL/well of effector cells prepared as in Example 1)-5-2 (which was however suspended to 2×10^6 cells/mL) was added thereto, followed by centrifugation at room temperature at 1200 rpm for 5 minutes, and thereafter the cells were cultured overnight under conditions of 37° C. and 5% CO2. On the next day, 50 μl of the supernatant was recovered into a black plate (manufactured by Corning Inc). A solution of β-Glo assay system (manufactured by Promega Corp.) was added thereto at 50 μl/well. The luminescence intensity was measured using a plate reader (ENVISION; manufactured by PerkinElmer, Inc). The percentage of cells lysed by ADCC activity was calculated according to the following formula. Percentage of cells lysed (%)=(A−B)/(C−B)×100 • A: Count of each sample well • B: Average of spontaneous release (wells without antibody added) counts (n=3)
When adding the antibody, 50 μL of a medium for ADCC was added thereto. Except for that, the same operation as in the sample well was performed.
C: Average of maximum release (wells containing target cells lysed with a surfactant) counts (n=3)
When adding the antibody and adding the effector cells, 50 μL and 75 μL of a medium for ADCC were added thereto respectively. For the assay, 175 μl of the β-Glo assay system solution was added to each well containing the target cells and mixed therewith. A 100 μl aliquot thereof was added to a black plate to carry out the assay.
The ADCC activity of the humanized anti-human LAG-3 antibodies (hLA212) was investigated by the method described in Example 2)-2.
The in vitro ADCC activity of the humanized anti-human LAG-3 antibody hLA212_H4/L2 was evaluated by the method described in Example 7)-2.

[2] = biological target: T1, human LAG-3 expressed on 293T-lacZ cells; test: Binding activity to 293T-lacZ cells expressing human LAG-3 by flow cytometry; settings: mean fluorescence intensity
Protocol: (§1) The expression plasmid pcDNA3.1-hLAG-3 of human LAG-3 was introduced into the 293T-lacZ cells (described in Example 1)-5-1), using Lipofectamine 2000 (manufactured by Invitrogen Corp.), and the cells were cultured for 1 day and thereafter used for flow cytometry. The flow cytometry was performed according to the method described in Example 1)-4, except that an Anti-Human IgG PE conjugate (manufactured by Jackson ImmunoResearch Laboratories, Inc.) diluted 200-fold with a FACS buffer was used as the secondary antibody.
as §1, with “human LAG-3-expression” for “expression”, “pcDNA3.1/hLAG-3” for “pcDNA3.1-hLAG-3 of human LAG-3”, “but” for “except that”
The binding of the humanized anti-human LAG-3 antibody hLA212_H4/L2 to human LAG-3-expressing 293T-lacZ cells was investigated by flow cytometry according to the method described in Example 7)-2.

Molecule | ADCC activity on cells expressing human LAG-3 [1] | binding activity to 293T-lacZ cells expressing human LAG-3 [2]
hLA212_H2/L4: humanized antibody; heavy chain positions 20 to 470 of SEQ ID No: 28, light chain positions 21 to 234 of SEQ ID No: 38 (antibody) heavy: EVQLVESGGGLVQPGGSLRLSCAASGFTYRSYVMAWVRQAPGKGLEWVGSISTGGGNTYYRDSVKGRFTISRDNAKNTLYLQMNSLRAEDTAVYYCAEDMSNSGYGLFDYWGQGTLVTVSSASTKGPSVFPLAPSSKSTSGGTAALGCLVKDYFPEPVTVSWNSGALTSGVHTFPAVLQSSGLYSLSSVVTVPSSSLGTQTYICNVNHKPSNTKVDKRV[left out - human IgG1 Fc] light: DIQMTQSPSSMSISVGDRVTMTCKAGQNVDNNIAWYQKKPGQSPKLLIYYASNRNTGVPSRFSGSGSGTDFTLTISSVQPEDFATYYCQRISNSPYTFGQGTKLELKRTVAAPSVFIFPPSDEQLKSGTASVVCLLNNFYPREAKVQWKVDNALQSGNSQESVTEQDSKDSTYSLSSTLTLSKADYEKHKVYACEVTHQGLSSPVTKSFNRGEC | concentration-dependent ADCC activity against the 293T-lacZ cells expressing human LAG-3, almost comparable to the human chimeric anti-LAG-3 antibody cLA212 | concentration-dependent binding activity to the 293T-lacZ cells expressing human LAG-3, comparable to the human chimeric anti-LAG-3 antibody cLA212
hLA212_H3/L3: humanized antibody; heavy chain positions 20 to 470 of SEQ ID No: 30, light chain positions 21 to 234 of SEQ ID No: 36 (antibody) heavy: EVQLVESGGGLVQPGGSLRLSCAASGFTYRSYVMAWVRQAPGKGLEWVASISTGGGNTYYRDSVKGRFTISRDNAKNTLYLQMDSLRAEDTAVYYCAEDMSNSGYGLFDYWGQGTLVTVSSASTKGPSVFPLAPSSKSTSGGTAALGCLVKDYFPEPVTVSWNSGALTSGVHTFPAVLQSSGLYSLSSVVTVPSSSLGTQTYICNVNHKPSNTKVDKRV[left out - human IgG1 Fc] light: NIQMTQSPSSLSASVGDRVTITCKAGQNVDNNIAWYQKKPGQSPKLLIYYASNRNTGVPDRFSGGGYGTDFTLTISSLQPEDFAFYYCQRISNSPYTFGQGTKVEIKRTVAAPSVFIFPPSDEQLKSGTASVVCLLNNFYPREAKVQWKVDNALQSGNSQESVTEQDSKDSTYSLSSTLTLSKADYEKHKVYACEVTHQGLSSPVTKSFNRGEC | concentration-dependent ADCC activity against the 293T-lacZ cells expressing human LAG-3, almost comparable to the human chimeric anti-LAG-3 antibody cLA212 | concentration-dependent binding activity to the 293T-lacZ cells expressing human LAG-3, comparable to the human chimeric anti-LAG-3 antibody cLA212
hLA212_H3/L1: humanized antibody; heavy chain positions 20 to 470 of SEQ ID No: 30, light chain positions 21 to 234 of SEQ ID No: 32 (antibody) heavy: EVQLVESGGGLVQPGGSLRLSCAASGFTYRSYVMAWVRQAPGKGLEWVASISTGGGNTYYRDSVKGRFTISRDNAKNTLYLQMDSLRAEDTAVYYCAEDMSNSGYGLFDYWGQGTLVTVSSASTKGPSVFPLAPSSKSTSGGTAALGCLVKDYFPEPVTVSWNSGALTSGVHTFPAVLQSSGLYSLSSVVTVPSSSLGTQTYICNVNHKPSNTKVDKRV[left out - human IgG1 Fc] light: DIQMTQSPSSLSASVGDRVTITCKAGQNVDNNIAWYQQKPGQAPKLLIYYASNRNTGVPSRFSGSGSGTDFTLTISSLQPEDFATYYCQRISNSPYTFGQGTKVEIKRTVAAPSVFIFPPSDEQLKSGTASVVCLLNNFYPREAKVQWKVDNALQSGNSQESVTEQDSKDSTYSLSSTLTLSKADYEKHKVYACEVTHQGLSSPVTKSFNRGEC | concentration-dependent ADCC activity against the 293T-lacZ cells expressing human LAG-3, almost comparable to the human chimeric anti-LAG-3 antibody cLA212 | concentration-dependent binding activity to the 293T-lacZ cells expressing human LAG-3, comparable to the human chimeric anti-LAG-3 antibody cLA212
hLA212_H2/L5: humanized antibody; heavy chain positions 20 to 470 of SEQ ID No: 28, light chain positions 21 to 234 of SEQ ID No: 40 (antibody) heavy: EVQLVESGGGLVQPGGSLRLSCAASGFTYRSYVMAWVRQAPGKGLEWVGSISTGGGNTYYRDSVKGRFTISRDNAKNTLYLQMNSLRAEDTAVYYCAEDMSNSGYGLFDYWGQGTLVTVSSASTKGPSVFPLAPSSKSTSGGTAALGCLVKDYFPEPVTVSWNSGALTSGVHTFPAVLQSSGLYSLSSVVTVPSSSLGTQTYICNVNHKPSNTKVDKRV[left out - human IgG1 Fc] light: NIQMTQSPSSMSISVGDRVTMTCKAGQNVDNNIAWYQKKPGQSPKLLIYYASNRNTGVPDRFSGGGYGTDFTLTISSVQPEDAAFYYCQRISNSPYTFGQGTKLELKRTVAAPSVFIFPPSDEQLKSGTASVVCLLNNFYPREAKVQWKVDNALQSGNSQESVTEQDSKDSTYSLSSTLTLSKADYEKHKVYACEVTHQGLSSPVTKSFNRGEC | concentration-dependent ADCC activity against the 293T-lacZ cells expressing human LAG-3, almost comparable to the human chimeric anti-LAG-3 antibody cLA212 | concentration-dependent binding activity to the 293T-lacZ cells expressing human LAG-3, comparable to the human chimeric anti-LAG-3 antibody cLA212
